Source: article PMC4336329 (PLoS ONE, 2015)
Screen size: about 310,000 compounds; about 2,200 (0.71%) showed an effect of 50% or more. Effects have a minus sign here. The list shows a part of the results.

The compounds below were run against human ether-à-go-go-related gene (hERG) potassium channel (human, UniProt Q12809) (assay: primary screen, population patch clamp on CHO cells stably expressing hERG).
Sequence of human ether-à-go-go-related gene (hERG) potassium channel (Q12809 whole entry, looked up): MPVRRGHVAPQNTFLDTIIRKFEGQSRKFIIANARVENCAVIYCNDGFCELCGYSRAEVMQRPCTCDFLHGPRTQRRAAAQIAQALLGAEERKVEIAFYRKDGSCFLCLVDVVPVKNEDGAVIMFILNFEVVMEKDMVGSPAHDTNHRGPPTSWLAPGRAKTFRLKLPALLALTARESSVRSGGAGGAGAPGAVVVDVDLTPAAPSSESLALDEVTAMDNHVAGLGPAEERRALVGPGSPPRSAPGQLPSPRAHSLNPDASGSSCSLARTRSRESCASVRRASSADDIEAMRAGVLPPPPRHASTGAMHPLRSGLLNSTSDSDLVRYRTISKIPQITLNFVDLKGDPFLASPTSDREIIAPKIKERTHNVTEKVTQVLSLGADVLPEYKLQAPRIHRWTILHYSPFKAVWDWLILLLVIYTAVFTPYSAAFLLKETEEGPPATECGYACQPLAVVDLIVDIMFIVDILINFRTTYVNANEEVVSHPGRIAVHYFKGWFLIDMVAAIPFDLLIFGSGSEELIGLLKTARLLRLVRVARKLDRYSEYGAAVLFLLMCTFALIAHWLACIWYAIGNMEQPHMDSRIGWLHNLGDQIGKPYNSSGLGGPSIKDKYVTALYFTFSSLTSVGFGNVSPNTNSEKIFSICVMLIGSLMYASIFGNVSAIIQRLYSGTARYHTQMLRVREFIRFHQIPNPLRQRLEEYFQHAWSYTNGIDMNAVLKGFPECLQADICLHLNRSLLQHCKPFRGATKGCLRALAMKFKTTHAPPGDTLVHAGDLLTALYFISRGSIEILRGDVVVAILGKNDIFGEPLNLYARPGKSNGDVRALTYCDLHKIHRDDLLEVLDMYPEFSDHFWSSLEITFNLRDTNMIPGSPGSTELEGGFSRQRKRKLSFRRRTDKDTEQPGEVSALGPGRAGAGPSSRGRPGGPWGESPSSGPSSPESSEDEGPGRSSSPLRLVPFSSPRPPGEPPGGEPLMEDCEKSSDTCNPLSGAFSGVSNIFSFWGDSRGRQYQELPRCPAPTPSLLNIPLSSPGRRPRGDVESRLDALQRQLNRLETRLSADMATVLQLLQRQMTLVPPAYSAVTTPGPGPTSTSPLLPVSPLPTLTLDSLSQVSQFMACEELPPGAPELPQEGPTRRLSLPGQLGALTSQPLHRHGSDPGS

**Q.** How did the “hERG current change (%, negative = inhibition) at 1uM” value turn out when `CN(C)/C=N/c1c(C#N)cnn1-c1ccc(C(F)(F)F)cn1` was run?
**A.** Its value is 17.5%.

**Q.** `CCc1sc(C(=O)NC)cc1Br` was tested. Which “hERG current change (%, negative = inhibition) at 1uM” value did it give?
**A.** Its value is 7.56%.

**Q.** Which “hERG current change (%, negative = inhibition) at 1uM” value does the source give for `COc1ccc(OC)c(CN2CCN(CCCc3ccccc3)C(CCO)C2)c1` (centres unmarked) here?
**A.** The value was -27.4%.

**Q.** With `Cc1ccc(/C=C2/Sc3ccc(C(=O)N4CCN(C)CC4)cc3NC2=O)cc1` as the compound, how does the “hERG current change (%, negative = inhibition) at 1uM” value read?
**A.** Its value is 13.1%.

**Q.** With `O=C1c2ccccc2C(=O)N1Cc1cc(-c2ccccc2Cl)no1` as the compound, how does the “hERG current change (%, negative = inhibition) at 1uM” value read?
**A.** The value was 8.86%.

**Q.** `O=C(Nc1ccccc1-c1nnn(CC(=O)N2CCCc3ccccc32)n1)c1ccc(Cl)cc1` was tested. Which “hERG current change (%, negative = inhibition) at 1uM” value did it give?
**A.** The value was 6.59%.

**Q.** Which “hERG current change (%, negative = inhibition) at 1uM” value does the source give for `COC(=O)c1ccc(Cl)c(NS(=O)(=O)c2ccc3c(c2)OCCO3)c1` here?
**A.** The value was 7.06%.

**Q.** For `CN(c1cccc(NC(=O)CN(c2cccc(Cl)c2)S(=O)(=O)c2ccccc2)c1)S(C)(=O)=O`, which “hERG current change (%, negative = inhibition) at 1uM” value is on record?
**A.** The value was 18%.

**Q.** How did the “hERG current change (%, negative = inhibition) at 1uM” value turn out when `O=C(NCc1ccco1)c1ccc(Oc2ccccc2)cc1` was run?
**A.** Its value is 0.484%.

**Q.** How did the “hERG current change (%, negative = inhibition) at 1uM” value turn out when `Cc1c(NC(=S)NC(NC(=O)C(C)C)C(Cl)(Cl)Cl)c(=O)n(-c2ccccc2)n1C` (centres unmarked) was run?
**A.** The value was 7.95%.

**Q.** For `CN(NC(=O)C(C)(C)C)c1nc(-c2ccccc2)nnc1C(F)(F)F`, which “hERG current change (%, negative = inhibition) at 1uM” value is on record?
**A.** Its value is 4.99%.

**Q.** Which “hERG current change (%, negative = inhibition) at 1uM” value does the source give for `CC(NC(=O)C(C)N1C(=O)c2cccc([N+](=O)[O-])c2C1=O)c1ccccc1` (centres unmarked) here?
**A.** Its value is 14.9%.

**Q.** Which “hERG current change (%, negative = inhibition) at 1uM” value does the source give for `COc1ccc(N(CC(O)CN2C(=O)NC(C)(C)C2=O)S(=O)(=O)c2ccccc2)cc1` (centres unmarked) here?
**A.** The value was 0.639%.

**Q.** Which “hERG current change (%, negative = inhibition) at 1uM” value does the source give for `O=C(COc1ccccc1)Nc1nc(-c2ccc(S(=O)(=O)N3CCOCC3)cc2)cs1` here?
**A.** Its value is 8.24%.

**Q.** With `O=C(Nc1nc2ccccc2n1CCOc1ccccc1)c1ccco1` as the compound, how does the “hERG current change (%, negative = inhibition) at 1uM” value read?
**A.** The value was 4.26%.

**Q.** Which “hERG current change (%, negative = inhibition) at 1uM” value does the source give for `CCc1ccccc1S(=O)(=O)c1c(C)cc(C)nc1Cl` here?
**A.** The value was 13.1%.

**Q.** With `CCCn1ncc(CN2CCC(n3nccc3NC(=O)c3ccccc3OC)CC2)c1C` as the compound, how does the “hERG current change (%, negative = inhibition) at 1uM” value read?
**A.** The value was -73.2%.

**Q.** With `C=CCNc1ccc(N2C(=O)C3CCC(C)CC3C2=O)cc1[N+](=O)[O-]` (centres unmarked) as the compound, how does the “hERG current change (%, negative = inhibition) at 1uM” value read?
**A.** Its value is 4.92%.

**Q.** `Cc1ccc(NC(=S)N(CCN(C)C)C(C)c2ccco2)cc1Cl` (centres unmarked) was tested. Which “hERG current change (%, negative = inhibition) at 1uM” value did it give?
**A.** Its value is 0.0693%.

**Q.** How did the “hERG current change (%, negative = inhibition) at 1uM” value turn out when `Cc1cccc(CSC2=NCCN2C(=O)c2ccco2)c1` was run?
**A.** The value was 11.2%.

**Q.** `Cc1ccc(-c2c[n+](CC(=O)Nc3ccc(C)cc3C)c3n2CCC3)cc1.[Cl-]` was tested. Which “hERG current change (%, negative = inhibition) at 1uM” value did it give?
**A.** Its value is -1.1%.

**Q.** For `COc1ccc2nc3oc(C(=O)N4CCCCC4)cc3cc2c1`, which “hERG current change (%, negative = inhibition) at 1uM” value is on record?
**A.** Its value is 8.21%.

**Q.** For `N#Cc1cc(C(=O)c2cc(F)ccc2O)cn(-c2nccs2)c1=O`, which “hERG current change (%, negative = inhibition) at 1uM” value is on record?
**A.** The value was 4.94%.
